# Laboratory results as given in the supplement of paper PMC10037445.
# In all, about 2,900 compounds were measured (“NF-kB SEAP reporter activity, fold change vs agonist alone”: median about 0.99, highest 2% from about 2.6 on). Some of the results follow.
# How the values were obtained:
# [1] = tested on: RAW-Dual; assay: NF-kB SEAP reporter activity, fold change vs agonist alone; cytotoxicity flag (confluency mask): not cytotoxic; higher = enhanced NF-kB activity
# Method in brief: (§1)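 Reporter activity is given as fold change relative to agonist-alone wells. To measure it, 50 nL of library stock was pin-tooled onto RAW-Dual macrophages (50,000 cells/well, DMEM, 384-well plates), a PRR agonist followed 1 h later, and cells stayed at 37 °C, 5% CO2. Twenty hours on, supernatant was assayed for IRF (QuantiLuc luminescence) and NF-κB (QuantiBlue, 620 nm absorbance), and wells under 70% of agonist-control IncuCyte confluency in both mask sets were marked cytotoxic.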
# [2] = tested on: RAW-Dual; assay: NF-kB SEAP reporter activity, fold change vs agonist alone; higher = enhanced NF-kB activity; settings: library stock concentration (final ~1000-fold dilution): 10 mM
# Method in brief: as §1
# [3] = tested on: RAW-Dual; assay: NF-kB SEAP reporter activity, fold change vs agonist alone; cytotoxicity flag (confluency mask): cytotoxic (confluency <70% of control); higher = enhanced NF-kB activity
# Method in brief: as §1
# [4] = agonist: ODN 1826 (TLR9) 0.5 ug/mL
# [5] = agonist: Pam2CSK4 (TLR2/6) 0.1 ug/mL
# [6] = agonist: Pam3CSK4 (TLR2/1) 0.1 ug/mL
# [7] = cytotoxicity flag (confluency mask): not cytotoxic, agonist: Imiquimod (TLR7) […]
# [8] = cytotoxicity flag (confluency mask): not cytotoxic, agonist: MPLA (TLR4) […]
# [9] = cytotoxicity flag (confluency mask): cytotoxic (confluency <70% of control), agonist: MPLA (TLR4) […]
compound,measurement,setting,value
Cc1ccc(S(=O)(=O)O)cc1.Cn1cc(-c2ccc(F)c(C(F)(F)F)c2)nc1C1CCN(c2ncnc3[nH]ncc23)CC1 (library stock concentration (final ~1000-fold dilution): 10 mM),NF-kB SEAP reporter activity,[1]; agonist: LPS (TLR4) 0.1 ug/mL,0.957
same,NF-kB SEAP reporter activity,[1]; [4],1.08
same,NF-kB SEAP reporter activity,[1]; [5],0.832
same,NF-kB SEAP reporter activity,[1]; [6],0.996
Cc1ccc(S(=O)(=O)O)cc1.Cn1cc(-c2ccc(F)c(C(F)(F)F)c2)nc1C1CCN(c2ncnc3[nH]ncc23)CC1,NF-kB SEAP reporter activity,[2]; [7],0.152
same,NF-kB SEAP reporter activity,[2]; [8],0.981
COC(=O)NC(C(=O)NC(Cc1ccccc1)C(O)CN(Cc1ccc(-c2ccccn2)cc1)NC(=O)C(NC(=O)OC)C(C)(C)C)C(C)(C)C.O=S(=O)(O)O (stereo not given) (library stock concentration (final ~1000-fold dilution): 10 mM),NF-kB SEAP reporter activity,[1]; agonist: LPS (TLR4) 0.1 ug/mL,1.54
same,NF-kB SEAP reporter activity,[1]; [4],2.67
same,NF-kB SEAP reporter activity,[1]; [5],1.47
same,NF-kB SEAP reporter activity,[1]; [6],1.68
COC(=O)NC(C(=O)NC(Cc1ccccc1)C(O)CN(Cc1ccc(-c2ccccn2)cc1)NC(=O)C(NC(=O)OC)C(C)(C)C)C(C)(C)C.O=S(=O)(O)O (stereo not given),NF-kB SEAP reporter activity,[2]; [7],2.01
same,NF-kB SEAP reporter activity,[2]; [8],1.56
O=C(NOCC(O)CO)c1cc(Br)c(F)c(F)c1Nc1ccc(I)cc1F (stereo not given),NF-kB SEAP reporter activity,[2]; [7],0.202
same,NF-kB SEAP reporter activity,[2]; [8],0.229
O=C(NOCC(O)CO)c1cc(Br)c(F)c(F)c1Nc1ccc(I)cc1F (stereo not given) (library stock concentration (final ~1000-fold dilution): 10 mM),NF-kB SEAP reporter activity,[1]; agonist: LPS (TLR4) 0.1 ug/mL,0.197
same,NF-kB SEAP reporter activity,[1]; [4],0.265
same,NF-kB SEAP reporter activity,[1]; [5],0.08
same,NF-kB SEAP reporter activity,[1]; [6],0.123
O=C(O)COc1ccc(Br)cc1/C=C1\SC(=S)N(Cc2cccnc2)C1=O,NF-kB SEAP reporter activity,[2]; [7],0.936
same,NF-kB SEAP reporter activity,[2]; [8],1.05
O=C(O)COc1ccc(Br)cc1/C=C1\SC(=S)N(Cc2cccnc2)C1=O (library stock concentration (final ~1000-fold dilution): 10 mM),NF-kB SEAP reporter activity,[1]; agonist: LPS (TLR4) 0.1 ug/mL,1.07
same,NF-kB SEAP reporter activity,[1]; [4],0.802
same,NF-kB SEAP reporter activity,[1]; [5],0.779
same,NF-kB SEAP reporter activity,[1]; [6],0.974
CN(C)CC(c1ccc(O)cc1)C1(O)CCCCC1 (stereo not given) (library stock concentration (final ~1000-fold dilution): 10 mM),NF-kB SEAP reporter activity,[1]; agonist: LPS (TLR4) 0.1 ug/mL,0.8
same,NF-kB SEAP reporter activity,[1]; [4],0.892
same,NF-kB SEAP reporter activity,[1]; [5],0.986
same,NF-kB SEAP reporter activity,[1]; [6],1.1
CN(C)CC(c1ccc(O)cc1)C1(O)CCCCC1 (stereo not given),NF-kB SEAP reporter activity,[2]; [7],0.914
same,NF-kB SEAP reporter activity,[2]; [8],0.997
O=C(O)CCC(=O)OCC(NC(=O)C(Cl)Cl)C(O)c1ccc([N+](=O)[O-])cc1 (stereo not given) (library stock concentration (final ~1000-fold dilution): 10 mM),NF-kB SEAP reporter activity,[1]; agonist: LPS (TLR4) 0.1 ug/mL,1.32
same,NF-kB SEAP reporter activity,[1]; [4],0.936
same,NF-kB SEAP reporter activity,[1]; [5],1.24
same,NF-kB SEAP reporter activity,[1]; [6],1.14
O=C(O)CCC(=O)OCC(NC(=O)C(Cl)Cl)C(O)c1ccc([N+](=O)[O-])cc1 (stereo not given),NF-kB SEAP reporter activity,[2]; [8],1.03
OC1C=C2CCN3Cc4cc5c(cc4C(C1O)C23)OCO5 (stereo not given) (library stock concentration (final ~1000-fold dilution): 10 mM),NF-kB SEAP reporter activity,[3]; agonist: LPS (TLR4) 0.1 ug/mL,1.54
same,NF-kB SEAP reporter activity,[3]; [4],1.05
same,NF-kB SEAP reporter activity,[3]; [5],0.33
same,NF-kB SEAP reporter activity,[3]; [6],0.552
OC1C=C2CCN3Cc4cc5c(cc4C(C1O)C23)OCO5 (stereo not given),NF-kB SEAP reporter activity,"[2]; cytotoxicity flag (confluency mask): cytotoxic (confluency <70% of control), agonist: Imiquimod (TLR7) […]",2.07
same,NF-kB SEAP reporter activity,[2]; [9],1.61
CCCCC(C=O)NC(=O)C(CC(C)C)NC(=O)OCc1ccccc1 (stereo not given) (library stock concentration (final ~1000-fold dilution): 10 mM),NF-kB SEAP reporter activity,[1]; agonist: LPS (TLR4) 0.1 ug/mL,1.06
same,NF-kB SEAP reporter activity,[1]; [4],1.23
same,NF-kB SEAP reporter activity,[1]; [5],1.06
same,NF-kB SEAP reporter activity,[1]; [6],1.26
CCCCC(C=O)NC(=O)C(CC(C)C)NC(=O)OCc1ccccc1 (stereo not given),NF-kB SEAP reporter activity,[2]; [7],0.529
same,NF-kB SEAP reporter activity,[2]; [8],1.21
Cc1sc2c(c1C)C(c1ccc(Cl)cc1)=NC(CC(=O)NCCCCNC(=O)COc1cccc3c1C(=O)N(C1CCC(=O)NC1=O)C3=O)c1nnc(C)n1-2 (stereo not given),NF-kB SEAP reporter activity,[2]; [9],2.59
Cc1sc2c(c1C)C(c1ccc(Cl)cc1)=NC(CC(=O)NCCCCNC(=O)COc1cccc3c1C(=O)N(C1CCC(=O)NC1=O)C3=O)c1nnc(C)n1-2 (stereo not given) (library stock concentration (final ~1000-fold dilution): 10 mM),NF-kB SEAP reporter activity,[3]; agonist: LPS (TLR4) 0.1 ug/mL,7.56
same,NF-kB SEAP reporter activity,[3]; [4],3.05
same,NF-kB SEAP reporter activity,[3]; [6],3.03
CCCCCCCCCCCC(CC1OC(=O)C1CCCCCC)OC(=O)C(CC(C)C)NC=O (stereo not given) (library stock concentration (final ~1000-fold dilution): 10 mM),NF-kB SEAP reporter activity,[1]; agonist: LPS (TLR4) 0.1 ug/mL,1.07
same,NF-kB SEAP reporter activity,[1]; [4],1.02
same,NF-kB SEAP reporter activity,[1]; [5],0.959
same,NF-kB SEAP reporter activity,[1]; [6],0.978
CCCCCCCCCCCC(CC1OC(=O)C1CCCCCC)OC(=O)C(CC(C)C)NC=O (stereo not given),NF-kB SEAP reporter activity,[2]; [7],0.823
same,NF-kB SEAP reporter activity,[2]; [8],0.902
CN(C)CCOC(=O)COc1ccc(Cl)cc1.Cl (library stock concentration (final ~1000-fold dilution): 10 mM),NF-kB SEAP reporter activity,[1]; agonist: LPS (TLR4) 0.1 ug/mL,1.27
same,NF-kB SEAP reporter activity,[1]; [4],1.08
same,NF-kB SEAP reporter activity,[1]; [5],1.24
same,NF-kB SEAP reporter activity,[1]; [6],1
CN(C)CCOC(=O)COc1ccc(Cl)cc1.Cl,NF-kB SEAP reporter activity,[2]; [7],1.09
same,NF-kB SEAP reporter activity,[2]; [8],1.09
COc1cc(-c2oc3cc(O)cc(O)c3c(=O)c2OC2OC(CO)C(O)C(O)C2OC2OC(C)C(O)C(O)C2O)ccc1O (stereo not given),NF-kB SEAP reporter activity,[2]; [7],0.928
same,NF-kB SEAP reporter activity,[2]; [8],1.05
COc1cc(-c2oc3cc(O)cc(O)c3c(=O)c2OC2OC(CO)C(O)C(O)C2OC2OC(C)C(O)C(O)C2O)ccc1O (stereo not given) (library stock concentration (final ~1000-fold dilution): 10 mM),NF-kB SEAP reporter activity,[1]; agonist: LPS (TLR4) 0.1 ug/mL,1.2
same,NF-kB SEAP reporter activity,[1]; [4],0.987
same,NF-kB SEAP reporter activity,[1]; [5],1.01
same,NF-kB SEAP reporter activity,[1]; [6],0.949
CCN1CCN(Cc2ccc(-c3cc4c(NC(C)c5ccccc5)ncnc4[nH]3)cc2)CC1 (stereo not given),NF-kB SEAP reporter activity,[2]; [7],1.59
same,NF-kB SEAP reporter activity,[2]; [8],0.93
CCN1CCN(Cc2ccc(-c3cc4c(NC(C)c5ccccc5)ncnc4[nH]3)cc2)CC1 (stereo not given) (library stock concentration (final ~1000-fold dilution): 10 mM),NF-kB SEAP reporter activity,[1]; agonist: LPS (TLR4) 0.1 ug/mL,0.832
same,NF-kB SEAP reporter activity,[1]; [4],0.215
same,NF-kB SEAP reporter activity,[1]; [5],1.02
same,NF-kB SEAP reporter activity,[1]; [6],1.01
